In the RNAGym collection of RNA variant scans (doi:10.1093/nar/gkz1192):
Read counts are not given, so values of variants with three or more changes are uncertain.

B1: CPEB3 Ribozyme (parent)
chain: UAACAGGGGGCCACAGCAGAAGCGUUCACGUCGCAGCCCCUGUCAGAUUCUGGUGAAUCUGCGAAUUCUGCUGUAUAUCUC

Variants of: B1
Test: self-cleavage, relative activity (ratio to wild type); higher = more cleavage; in vitro, sequencing
Summary of the method: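 Relative activity compares each variant's cleaved/total read fraction with that of the unmutated ribozyme. To get these fractions, barcoded CPEB3 ribozyme libraries from rounds of error-prone PCR were transcribed with T7 RNA polymerase for 5 hours at 37°C and then given 15 min of DNase I treatment before EDTA was added. The RNAs were reverse transcribed with template switching and sequenced on Illumina, and DNA sequencing linked barcodes to variants. A minimum of 5 reads applied, and three batches were averaged.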
For G30U A57C U72A, the self-cleavage was 0.1. With G30U C32A A75G the self-cleavage was 0.18. Work on G30U C32G A56G U60C U80C yielded a self-cleavage of 0.15. For G30U U31A A35U U43C U80A, the self-cleavage was 0.17. In the case of G30U U31A A47G, the self-cleavage is reported as 0.33. Work on G30U U31C U54G U69A yielded a self-cleavage of 0.19. With G30U U41A U54A U58C U66C the self-cleavage was 0.14. In the case of G30U U41C A75G U78C, the self-cleavage is reported as 0.11. For G30U U41C U51C U54A, the self-cleavage was 0.09. Work on G30U U51C A75G U76A yielded a self-cleavage of 0.1. For G30U U60C G63A, the self-cleavage was 0.2. For G30U U66C U72C, the self-cleavage was 0.13. U31A A35C U48C gave a self-cleavage of 0.17. With U31A A35C U72A A77C the self-cleavage was 0.16. For U31A A35G G73C, the self-cleavage was 1.28. U31A A35G U69C A75U gave a self-cleavage of 1. For U31A A35U U43C U66A U74C, the self-cleavage was 0.09. U31A A35U U51A A56G U60C gave a self-cleavage of 0.06. For U31A A45C A56G U67C, the self-cleavage was 0.11. Variant U31A A45G G53A has a self-cleavage of 0.36. Work on U31A A45G U58C yielded a self-cleavage of 0.08. U31A A45G U72A U76C showed a self-cleavage of 0.22. Work on U31A A45U G53U U80C yielded a self-cleavage of 0.38. Variant U31A A45U G63U has a self-cleavage of 0.59. For U31A A45U U48C A64G, the self-cleavage was 0.14. Work on U31A A45U U49C A65G yielded a self-cleavage of 0.15. For U31A A45U U72C, the self-cleavage was 0.27. Variant U31A A45U U80C has a self-cleavage of 0.62. Variant U31A A47G U51A has a self-cleavage of 0.68. For U31A A47G U72C, the self-cleavage was 0.42. U31A A47G U72G U80C gave a self-cleavage of 0.91. For U31A A56G U76G U78C, the self-cleavage was 0.23. In the case of U31A A56G U78C, the self-cleavage is reported as 0.33. Work on U31A A56U U60A yielded a self-cleavage of 0.15. With U31A A56U U78C the self-cleavage was 0.19. Work on U31A A57G U60A A64G U69A yielded a self-cleavage of 0.17. With U31A A64G C71A the self-cleavage was 0.13. U31A C32A A56U U60C showed a self-cleavage of 0.11. Variant U31A C32U U80A has a self-cleavage of 0.45. In the case of U31A C34U A77G, the self-cleavage is reported as 0.07. Work on U31A C34U U49C G63A A64G yielded a self-cleavage of 0.1. For U31A C40A A57G, the self-cleavage was 0.49. In the case of U31A C40U U49A U51A A56G G61C, the self-cleavage is reported as 0.1. In the case of U31A C40U U54C C79A, the self-cleavage is reported as 0.17. In the case of U31A G33A A35U U76C, the self-cleavage is reported as 0.08. Variant U31A G33A A45G G52U U66C U80C has a self-cleavage of 0.09. U31A G33A U41A U49C U54A A57G U58C showed a self-cleavage of 0.16. In the case of U31A G33U U41C C44U U78C, the self-cleavage is reported as 0.16. Work on U31A G53C U76C yielded a self-cleavage of 0.48. U31A G63U C68A gave a self-cleavage of 0.46. U31A U41A A56U showed a self-cleavage of 0.16. With U31A U41A U72C the self-cleavage was 0.22. With U31A U41C A57U the self-cleavage was 0.29. U31A U41C G55U showed a self-cleavage of 0.49. With U31A U41C U54A U78A the self-cleavage was 0.67. With U31A U43A U60C the self-cleavage was 0.29. U31A U48C A56U U78C gave a self-cleavage of 0.11. In the case of U31A U48C G63A A64C, the self-cleavage is reported as 0.32. U31A U48C U51A C81U showed a self-cleavage of 0.4. U31A U49A A56G showed a self-cleavage of 0.38. U31A U49A A65U A77U showed a self-cleavage of 0.09. U31A U49C A77U gave a self-cleavage of 0.22. Variant U31A U49C U51A U74C has a self-cleavage of 0.54. For U31A U51C U54C, the self-cleavage was 0.41. Variant U31A U54C U67C U69A has a self-cleavage of 0.08. With U31A U60C G70C the self-cleavage was 0.13. U31A U69G U74C A75G gave a self-cleavage of 0.24. U31A U72A U76A U78C showed a self-cleavage of 0.15. Variant U31A U74C A75G has a self-cleavage of 0.63. With U31A U74C A75U the self-cleavage was 0.9. With U31C A35C A47U U60C U69A the self-cleavage was 0.06. In the case of U31C A35G A57U, the self-cleavage is reported as 0.83. In the case of U31C A35G U54A U72C U80C, the self-cleavage is reported as 1.21. In the case of U31C A35G U72G, the self-cleavage is reported as 1.51. U31C A35U A45G U69C gave a self-cleavage of 0.08. Work on U31C A35U A57U U58A A65U yielded a self-cleavage of 0.09. U31C A35U A64U showed a self-cleavage of 0.15. For U31C A35U U41A U58G, the self-cleavage was 0.19. Work on U31C A35U U60A A64U yielded a self-cleavage of 0.09. For U31C A45C U54C, the self-cleavage was 0.16. In the case of U31C A45G A56U U58C U69A, the self-cleavage is reported as 0.12. In the case of U31C A45G A57G, the self-cleavage is reported as 0.48. U31C A45G A57U U76C gave a self-cleavage of 0.18.
